Measured values taken from PubChem BioAssay AID624418 (National Center for Advancing Translational Sciences (NCATS), 2012).
Screen size: about 410,000 compounds; about 530 (0.13%) were called active. The shares of active, inactive and inconclusive entries below differ from those in the screen. Calls follow the shape of the dose curve; as a rule, active = well fitted inhibition curve with a large enough effect; inconclusive = small, poorly fitted or top-dose-only effect, or another doubt; inactive = no such curve, though single readings can be large or run the other way. Potencies of inconclusive entries are doubtful fits and often do not repeat.

Assay: qHTS of GLP-1 Receptor Inverse Agonists: Cytotox Screen
Conditions: HEK293 cAMP-luciferase reporter cells, luminescence, 24 h; series mostly up to 38.3 µM
In short: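 Here, cytotoxicity is scored as loss of luminescence. The MLSMR collection was tested on cells seeded in medium containing 10% Nu serum, with a 24 hr compound exposure preceded by 12 hours of culture.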
Potency is read from the fitted curve at half-maximal effect.

Compound	Potency
CCOC(=O)/C=C(\C)Sc1cc(O)c2ccccc2c1O	inconclusive: 22.4 µM [inhibitor, single point]
COc1ccccc1N(CC(=O)NCCc1ccccc1)C(=O)CCC(=O)Nc1nccs1	inconclusive: 28.2 µM [inhibitor, single point]
COc1cccc2c1C(=O)c1c(O)c3c(c(O)c1C2=O)CC(O)(C(C)=NNC(=O)c1ccc(Cl)c(Cl)c1)CC3OC1CC(N)C(O)C(C)O1 (stereo not given)	inconclusive: 15.8 µM [inhibitor, partial curve, poor fit]
O=C(COc1ccccc1)N1CCN(c2ccc([N+](=O)[O-])c(N3CCCCC3)c2)CC1	inconclusive: 28.2 µM [inhibitor, single point]
CN1CCN(Cc2c(O)ccc3cc(Br)ccc23)CC1	inconclusive: 28.2 µM [inhibitor, single point]
COc1ccc(-n2nnnc2SCC#CCO)cc1	inconclusive: 28.2 µM [inhibitor, single point]
CC(=O)Nc1ccc(S(=O)(=O)Nc2ccc(-n3cnnn3)cc2)cc1	inactive
S=C(NCCCc1ccccc1)NC1CCCCC1	inconclusive: 11.2 µM [inhibitor, partial curve]
O=C(Nc1cccc(S(=O)(=O)N2CCCCCC2)c1)c1cncc(Br)c1	inactive
COc1ccc(/C=C2\SC(=S)NC2=O)cc1OS(=O)(=O)c1ccc(NC(C)=O)cc1	inconclusive: 28.2 µM [inhibitor, single point]
Cc1cc2nc(-c3ccc(NC(=O)c4ccccc4F)cc3)oc2cc1C	inactive
O=C(O)c1cccc(-c2ccc(/C=N/Nc3ccc([N+](=O)[O-])cc3)o2)c1	inconclusive: 12.6 µM [inhibitor, single point]
CCCCOc1ccc(-c2nc(/C=N/c3nccs3)c(O)o2)cc1	inactive
CC(C)c1ccccc1NC(=O)c1cccc(NC(=O)c2ccccc2)c1	inactive
CCn1c(CCCc2ccc(OC)c(C)c2)n[nH]c1=S	inconclusive: 11.2 µM [inhibitor, single point]
Cn1ncc(=S)[nH]c1=S	inconclusive: 11.2 µM [inhibitor, single point]
COc1ccccc1NC(=S)NCc1ccc(Cl)cc1	inconclusive: 20 µM [inhibitor, single point]
CCc1cc(=O)oc2cc(OCC(=O)N3CCCc4ccccc43)ccc12	inconclusive: 31.6 µM [inhibitor, single point]
COC(=O)c1cccc(OCCCN2CCC(C(O)(c3ccccc3)c3ccccc3)CC2)c1	inconclusive: 15.8 µM [inhibitor, single point]
O=S(=O)(Nc1ccc(O)c2ccccc12)c1ccc(OC(F)(F)F)cc1	inconclusive: 2 µM [inhibitor, full curve, poor fit]
CC1=CC(C)(C)NC(=S)N1c1cc(C)cc(C)c1	inconclusive: 11.2 µM [inhibitor, partial curve, poor fit]
C=CCSc1n[nH]c(-c2ccc(OCCCC)cc2)n1	inconclusive: 8.91 µM [inhibitor, partial curve, poor fit]

Compound	Potency
C=C1C(=O)O[C@H]2[C@H]1[C@@H](O)CC(=C)[C@@H]1CC(=O)[C@@H](C)[C@H]21	inconclusive: 10 µM [inhibitor, single point]
COC(=O)CN1C(c2ccccc2)=Nc2ccc(Cl)cc2C1c1ccccc1 (stereo not given)	inactive
CC(C)c1ccc(NC(=O)CN2C(=O)NC(Cc3c[nH]c4ccccc34)C2=O)cc1 (stereo not given)	inconclusive: 10 µM [inhibitor, single point]
COc1ccccc1CCC(=O)N(C)CC(=O)Nc1ccc(Cl)c(C(F)(F)F)c1	inconclusive: 25.1 µM [inhibitor, single point]
O=C(Nc1ccc(OC(F)(F)F)cc1)Nc1cccc([N+](=O)[O-])c1	active: 5.62 µM
Cc1ccc(Nc2nc(Cl)c(C=O)s2)cc1Cl	inconclusive: 28.2 µM [inhibitor, single point]
Fc1cccc(-c2csc(-c3ccno3)n2)c1	inactive
CCNC(=S)N/N=C/c1cccc(C)c1	inconclusive: 11.2 µM [inhibitor, partial curve, poor fit]
Cc1ccc(NC(=O)CS(=O)CC(=O)Nc2ccccc2-c2ccc(C)o2)cc1 (stereo not given)	inconclusive: 22.4 µM [inhibitor, single point]
CC(=O)c1c(C)[nH]c(C(=O)OCC(=O)Nc2ccc(Cl)c(S(=O)(=O)N(C)C)c2)c1C	inconclusive: 4.47 µM [inhibitor, full curve]
Cc1cc(C)nc(Sc2nc(Cl)nc(N(c3ccccc3)c3ccccc3)n2)n1	inconclusive: 28.2 µM [inhibitor, single point]
CCOC(=O)c1cc([N+](=O)[O-])c([N+](=O)[O-])cc1NC(C)=O	inconclusive: 20 µM [inhibitor, single point]
CCOC(=O)C1CCN(C(c2ccccn2)c2c(C)[nH]c3ccccc23)CC1 (stereo not given)	inconclusive: 12.6 µM [inhibitor, single point]
COc1ccc2c(c1)[nH]c1c(=O)n(CC3CCCO3)cnc12 (stereo not given)	inconclusive: 28.2 µM [inhibitor, single point]
Cc1cc(C)cc(NC(=S)NCC2CCCO2)c1 (stereo not given)	inconclusive: 15.8 µM [inhibitor, single point]
Cc1nn(-c2ccccc2)c(Cl)c1/C=N/NC(N)=O	inconclusive: 11.2 µM [inhibitor, single point]
O=C(c1ccccc1)c1c2c(cc3sc4ccccc4[n+]13)-c1cccc3cccc-2c13	inconclusive: 12.6 µM [inhibitor, single point]
O=C(Nc1ccc(F)cc1)C1C2CCC3C(CCC21)C3(Cl)Cl (stereo not given)	inconclusive: 31.6 µM [inhibitor, single point]
CN1C(=O)/C(=C\c2ccco2)N=C1c1ccc(Cl)cc1Cl	inconclusive: 10 µM [inhibitor, single point]
COc1ccc2oc(C(=O)NNC(=O)c3ccc(F)cc3)c(C)c2c1	inactive
Cc1noc(C)c1CCC(=O)NC1CCCN(Cc2ccc(CC(C)C)cc2)C1 (stereo not given)	inactive
COc1cccc(CN2CCC(n3nccc3NC(=O)CCCc3ccccc3)CC2)c1O	inactive

Compound	Potency
CNC(=S)N/N=C(\C)c1cccc(C(F)(F)F)c1	inconclusive: 6.31 µM [inhibitor, partial curve, poor fit]
CCOc1cccc2sc(N(CCN(C)C)C(=O)c3cc4ccccc4cc3OC)nc12	inconclusive: 12.6 µM [inhibitor, single point]
COc1cccc(/C=N/NC(N)=S)c1OCc1cccc(Cl)c1	inconclusive: 12.6 µM [inhibitor, partial curve, poor fit]
C[C@H](CO)N1C[C@H](C)[C@@H](CN(C)CC2CCCCC2)Oc2ccc(NS(C)(=O)=O)cc2C1=O	inconclusive: 2.82 µM [inhibitor, partial curve, poor fit]
COc1ccc(NC(=O)O/N=C/c2ccc(N(C)C)cc2)cc1	inconclusive: 12.6 µM [inhibitor, partial curve, poor fit]
Cc1cc(N2CCC(C(=O)N(CC(C)C)CC(C)C)CC2)n2nc(C)c(-c3ccc(Cl)cc3)c2n1	inactive
CN(C(=S)NC(=O)Cc1ccccc1)c1ccccc1	inconclusive: 12.6 µM [inhibitor, single point]
NS(=O)(=O)c1ccc(CCNC(=O)c2cc(-c3cc(Cl)ccc3O)n[nH]2)cc1	inconclusive: 10 µM [inhibitor, partial curve]
CCN(CC)c1nc(C)c(C(=S)Nc2cc([N+](=O)[O-])ccc2Cl)s1	inconclusive: 4.47 µM [inhibitor, full curve, poor fit]
Cc1ccc2nc(N(CCN3CCOCC3)C(=O)CCS(=O)(=O)c3ccccc3)sc2c1	inconclusive: 15.8 µM [inhibitor, single point]
CN(C)CCNc1nc2sc3c(c2c(=O)n1-c1ccc(F)cc1)CCCCC3	inconclusive: 14.1 µM [inhibitor, single point]
CCc1cccc(CC)c1NC(=S)NCc1ccc2c(c1)OCO2	inconclusive: 28.2 µM [inhibitor, single point]
S=c1[nH]nc(-c2cc(-c3ccccc3)n[nH]2)n1/N=C/C(Br)=C/c1ccccc1	inconclusive: 10 µM [inhibitor, partial curve, poor fit]
Oc1ccc(C[C@H]2CN([C@@H](Cc3cccc(O)c3)CN3CCC[C@@H]3CN3C(=S)NC[C@@H]3Cc3ccccc3)C(=S)N2CC2CCCCC2)cc1	inconclusive: 11.2 µM [inhibitor, partial curve, poor fit]
O=C(N/N=C\c1ccccn1)C1c2ccccc2Oc2ccccc21	inactive
Cc1cccc(CSc2cccc3cccnc23)c1	inconclusive: 3.98 µM [inhibitor, full curve, poor fit]
CCOc1ncccc1C(=O)OCC(=O)NCCc1ccccc1	inactive
O=C(NCc1ccco1)c1ccc2c(c1)N(Cc1ccc(Cl)cc1)C(=O)c1ccccc1S2(=O)=O	inactive
Clc1ccc(-c2csc(N/N=C/c3cccnc3)n2)c(Cl)c1	inactive
CN(C)c1ccc(N=Nc2ccc(S(N)(=O)=O)cc2)cc1	inconclusive: 4.47 µM [inhibitor, partial curve, poor fit]
COc1ccc(-c2[nH]ncc2-c2ccc3c(c2)OCCO3)c(O)c1	inconclusive: 20 µM [inhibitor, partial curve, poor fit]
